# Results as given in the supplement of paper PMC8728848.
# Some of the results follow.
# B1: Nictaba (Nicotiana tabacum), Q94EW1 (protein)
# chain: MQGQWIAARDLSITWVDNPQYWTWKTVDPNIEVAELRRVAWLDIYGKIETKNLIRKTSYAVYLVFKLTDNPRELERATASLRFVNEVAEGAGIEGTTVFISKKKKLPGELGRFPHLRSDGWLEIKLGEFFNNLGEDGEVEMRLMEINDKTWKSGIIVKGFDIRPN
# Tests used:
# Experiment in all cases: glycan array binding signal (z-score within array); higher = stronger binding
# Settings in all cases: glycan notation: IUPAC condensed, linker removed
# [1] = target: Neu5Ac(a2-3)Gal(b1-3)GlcNAc(b1-6)GalNAc
# Procedure, shortened: (§1)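 From the Consortium for Functional Glycomics database, 3228 arrays were curated, keeping only those whose protein sequence was available. Binding is given as a within-array Z-score averaged across arrays sharing a protein sequence and across linkers. Negative Z-scores can be read as non-binding.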
# [2] = target: Neu5Ac(a2-3)Gal(b1-3)GlcNAc6S
# Procedure, shortened: as §1
# [3] = target: Neu5Ac(a2-3)Gal(b1-3)[Fuc(a1-4)]GlcNAc
# Procedure, shortened: as §1
# [4] = target: Neu5Ac(a2-3)Gal(b1-3)[Fuc(a1-4)]GlcNAc(b1-3)Gal(b1-3)[Fuc(a1-4)]GlcNAc
# Procedure, shortened: as §1
# [5] = target: Neu5Ac(a2-3)Gal(b1-3)[Fuc(a1-4)]GlcNAc(b1-3)Gal(b1-4)[Fuc(a1-3)]GlcNAc
# Procedure, shortened: as §1
# [6] = target: Neu5Ac(a2-3)Gal(b1-3)[GlcNAc(b1-6)]GalNAc
# Procedure, shortened: as §1
# [7] = target: Neu5Ac(a2-3)Gal(b1-3)[Neu5Ac(a2-3)Gal(b1-4)]GlcNAc
# Procedure, shortened: as §1
# [8] = target: Neu5Ac(a2-3)Gal(b1-3)[Neu5Ac(a2-6)]GalNAc
# Procedure, shortened: as §1
# [9] = target: Neu5Ac(a2-3)Gal(b1-3)[Neu5Ac(a2-6)]GlcNAc(b1-3)[Fuc(a1-3)[Gal(b1-4)]GlcNAc(b1-6)]Gal(b1-4)Glc
# Procedure, shortened: as §1
# [10] = target: Neu5Ac(a2-3)Gal(b1-3)]Neu5Ac(a2-3)Gal(b1-4)]GlcNAc
# Procedure, shortened: as §1
# Neu5Ac(a2-3)Gal(b1-4)Glc = target: Neu5Ac(a2-3)Gal(b1-4)Glc
# Procedure, shortened: as §1
# [11] = target: Neu5Ac(a2-3)Gal(b1-4)GlcNAc
# Procedure, shortened: as §1
# [12] = target: Neu5Ac(a2-3)Gal(b1-4)GlcNAc(b1-2)Man
# Procedure, shortened: as §1
# [13] = target: Neu5Ac(a2-3)Gal(b1-4)GlcNAc(b1-2)Man(a1-3)[GlcNAc(b1-2)Man(b1-4)GlcNAc(b1-2)Man(a1-6)]Man(b1-4)GlcNAc(b1-4)GlcNAc
# Procedure, shortened: as §1
# [14] = target: Neu5Ac(a2-3)Gal(b1-4)GlcNAc(b1-2)Man(a1-3)[GlcNAc(b1-4)][Neu5Ac(a2-3)Gal(b1-4)GlcNAc(b1-2)Man(a1-6)]Man(b1-4)GlcNAc(b1-4)GlcNAc
# Procedure, shortened: as §1
# [15] = target: Neu5Ac(a2-3)Gal(b1-4)GlcNAc(b1-2)Man(a1-3)[Neu5Ac(a2-3)Gal(b1-4)GlcNAc(b1-2)Man(a1-6)]Man(b1-4)GlcNAc(b1-4)GlcNAc
# Procedure, shortened: as §1
# [16] = target: Neu5Ac(a2-3)Gal(b1-4)GlcNAc(b1-2)Man(a1-3)[Neu5Ac(a2-3)Gal(b1-4)GlcNAc(b1-2)Man(a1-6)]Man(b1-4)GlcNAc(b1-4)[Fuc(a1-6)]GlcNAc
# Procedure, shortened: as §1
# [17] = target: Neu5Ac(a2-3)Gal(b1-4)GlcNAc(b1-2)Man(a1-3)[Neu5Ac(a2-6)Gal(b1-4)GlcNAc(b1-2)Man(a1-6)]Man(b1-4)GlcNAc(b1-4)GlcNAc
# Procedure, shortened: as §1
# [18] = target: Neu5Ac(a2-3)Gal(b1-4)GlcNAc(b1-2)[Neu5Ac(a2-3)Gal(b1-4)GlcNAc(b1-4)]Man(a1-3)[GlcNAc(b1-4)][Neu5Ac(a2-3)Gal(b1-4)GlcNAc(b1-2)[Neu5Ac(a2-3)Gal(b1-4)GlcNAc(b1-6)]Man(a1-6)]Man(b1-4)GlcNAc(b1-4)GlcNAc
# Procedure, shortened: as §1
# [19] = target: Neu5Ac(a2-3)Gal(b1-4)GlcNAc(b1-2)[Neu5Ac(a2-3)Gal(b1-4)GlcNAc(b1-4)]Man(a1-3)[GlcNAc(b1-4)][Neu5Ac(a2-3)Gal(b1-4)GlcNAc(b1-4)Man(a1-6)]Man(b1-4)GlcNAc(b1-4)GlcNAc
# Procedure, shortened: as §1
# [20] = target: Neu5Ac(a2-3)Gal(b1-4)GlcNAc(b1-2)[Neu5Ac(a2-3)Gal(b1-4)GlcNAc(b1-6)]Man(a1-6)[Neu5Ac(a2-3)Gal(b1-4)GlcNAc(b1-2)Man(a1-3)]Man(b1-4)GlcNAc(b1-4)GlcNAc
# Procedure, shortened: as §1
# [21] = target: Neu5Ac(a2-3)Gal(b1-4)GlcNAc(b1-2)[Neu5Ac(a2-3)Gal(b1-4)GlcNAc(b1-6)]Man(a1-6)[Neu5Ac(a2-3)Gal(b1-4)GlcNAc(b1-2)Man(a1-3)][GlcNAc(b1-4)]Man(b1-4)GlcNAc(b1-4)GlcNAc
# Procedure, shortened: as §1
# [22] = target: Neu5Ac(a2-3)Gal(b1-4)GlcNAc(b1-3)Gal
# Procedure, shortened: as §1
# [23] = target: Neu5Ac(a2-3)Gal(b1-4)GlcNAc(b1-3)Gal(b1-3)GlcNAc
# Procedure, shortened: as §1
# [24] = target: Neu5Ac(a2-3)Gal(b1-4)GlcNAc(b1-3)Gal(b1-4)GlcNAc
# Procedure, shortened: as §1
# [25] = target: Neu5Ac(a2-3)Gal(b1-4)GlcNAc(b1-3)Gal(b1-4)GlcNAc(b1-2)Man(a1-3)[Neu5Ac(a2-3)Gal(b1-4)GlcNAc(b1-3)Gal(b1-4)GlcNAc(b1-2)Man(a1-6)]Man(b1-4)GlcNAc(b1-4)GlcNAc
# Procedure, shortened: as §1
# [26] = target: Neu5Ac(a2-3)Gal(b1-4)GlcNAc(b1-3)Gal(b1-4)GlcNAc(b1-3)Gal(b1-4)GlcNAc
# Procedure, shortened: as §1
# [27] = target: Neu5Ac(a2-3)Gal(b1-4)GlcNAc(b1-3)Gal(b1-4)GlcNAc(b1-3)Gal(b1-4)GlcNAc(b1-2)Man(a1-3)[Neu5Ac(a2-3)Gal(b1-4)GlcNAc(b1-3)Gal(b1-4)GlcNAc(b1-3)Gal(b1-4)GlcNAc(b1-2)Man(a1-6)]GalNAc
# Procedure, shortened: as §1
# [28] = target: Neu5Ac(a2-3)Gal(b1-4)GlcNAc(b1-3)Gal(b1-4)GlcNAc(b1-3)GalNAc
# Procedure, shortened: as §1
# [29] = target: Neu5Ac(a2-3)Gal(b1-4)GlcNAc(b1-3)Gal(b1-4)GlcNAc(b1-3)[Neu5Ac(a2-3)Gal(b1-4)GlcNAc(b1-3)Gal(b1-4)GlcNAc(b1-6)]GalNAc
# Procedure, shortened: as §1
# [30] = target: Neu5Ac(a2-3)Gal(b1-4)GlcNAc(b1-3)Gal(b1-4)GlcNAc(b1-6)[Gal(b1-3)]GalNAc
# Procedure, shortened: as §1
# [31] = target: Neu5Ac(a2-3)Gal(b1-4)GlcNAc(b1-3)Gal(b1-4)[Fuc(a1-3)]GlcNAc
# Procedure, shortened: as §1
# [32] = target: Neu5Ac(a2-3)Gal(b1-4)GlcNAc(b1-3)GalNAc
# Procedure, shortened: as §1
# [33] = target: Neu5Ac(a2-3)Gal(b1-4)GlcNAc(b1-3)[Neu5Ac(a2-3)Gal(b1-4)GlcNAc(b1-6)]GalNAc
# Procedure, shortened: as §1
# [34] = target: Neu5Ac(a2-3)Gal(b1-4)GlcNAc(b1-6)GalNAc
# Procedure, shortened: as §1
# [35] = target: Neu5Ac(a2-3)Gal(b1-4)GlcNAc(b1-6)[Gal(b1-3)]GalNAc
# Procedure, shortened: as §1
# [36] = target: Neu5Ac(a2-3)Gal(b1-4)GlcNAc(b1-6)[Neu5Ac(a2-3)Gal(b1-3)]GalNAc
# Procedure, shortened: as §1
# [37] = target: Neu5Ac(a2-3)Gal(b1-4)GlcNAc6S
# Procedure, shortened: as §1
# [38] = target: Neu5Ac(a2-3)Gal(b1-4)[Fuc(a1-3)]GlcNAc
# Procedure, shortened: as §1
# [39] = target: Neu5Ac(a2-3)Gal(b1-4)[Fuc(a1-3)]GlcNAc(b1-2)Man
# Procedure, shortened: as §1
# [40] = target: Neu5Ac(a2-3)Gal(b1-4)[Fuc(a1-3)]GlcNAc(b1-3)Gal
# Procedure, shortened: as §1
# [41] = target: Neu5Ac(a2-3)Gal(b1-4)[Fuc(a1-3)]GlcNAc(b1-3)Gal(b1-4)GlcNAc
# Procedure, shortened: as §1
# [42] = target: Neu5Ac(a2-3)Gal(b1-4)[Fuc(a1-3)]GlcNAc(b1-3)Gal(b1-4)[Fuc(a1-3)]GlcNAc(b1-3)Gal(b1-4)[Fuc(a1-3)]GlcNAc
# Procedure, shortened: as §1
binder,measurement,setting,value
B1,glycan array binding signal (z-score),[1],-0.39
same,glycan array binding signal (z-score),[2],-0.25
same,glycan array binding signal (z-score),[3],-0.284
same,glycan array binding signal (z-score),[4],-0.277
same,glycan array binding signal (z-score),[5],-0.268
same,glycan array binding signal (z-score),[6],-0.389
same,glycan array binding signal (z-score),[7],-0.271
same,glycan array binding signal (z-score),[8],-0.286
same,glycan array binding signal (z-score),[9],-0.39
same,glycan array binding signal (z-score),[10],-0.388
same,glycan array binding signal (z-score),Neu5Ac(a2-3)Gal(b1-4)Glc,-0.278
same,glycan array binding signal (z-score),[11],-0.189
same,glycan array binding signal (z-score),[12],-0.381
same,glycan array binding signal (z-score),[13],0.257
same,glycan array binding signal (z-score),[14],-0.37
same,glycan array binding signal (z-score),[15],1.23
same,glycan array binding signal (z-score),[16],1.7
same,glycan array binding signal (z-score),[17],0.039
same,glycan array binding signal (z-score),[18],-0.386
same,glycan array binding signal (z-score),[19],-0.383
same,glycan array binding signal (z-score),[20],-0.33
same,glycan array binding signal (z-score),[21],-0.384
same,glycan array binding signal (z-score),[22],-0.217
same,glycan array binding signal (z-score),[23],-0.252
same,glycan array binding signal (z-score),[24],-0.247
same,glycan array binding signal (z-score),[25],0.597
same,glycan array binding signal (z-score),[26],-0.162
same,glycan array binding signal (z-score),[27],-0.255
same,glycan array binding signal (z-score),[28],-0.388
same,glycan array binding signal (z-score),[29],-0.386
same,glycan array binding signal (z-score),[30],-0.389
same,glycan array binding signal (z-score),[31],-0.261
same,glycan array binding signal (z-score),[32],-0.308
same,glycan array binding signal (z-score),[33],-0.389
same,glycan array binding signal (z-score),[34],-0.385
same,glycan array binding signal (z-score),[35],-0.207
same,glycan array binding signal (z-score),[36],-0.302
same,glycan array binding signal (z-score),[37],-0.146
same,glycan array binding signal (z-score),[38],-0.258
same,glycan array binding signal (z-score),[39],-0.388
same,glycan array binding signal (z-score),[40],-0.241
same,glycan array binding signal (z-score),[41],-0.244
same,glycan array binding signal (z-score),[42],-0.273
